Screen size: about 310,000 compounds; about 18,000 (5.8%) were called active. This list was built around the results that the source calls inconclusive (neither active nor inactive); the mix of calls is not that of the screen. The call rests on the fitted dose curve; in most records, active means well fitted inhibition curve with a large enough effect; inconclusive means small, poorly fitted or top-dose-only effect, or another doubt; inactive means no such curve, though single readings can be large or run the other way. Potencies of inconclusive entries are left out as doubtful fits.
assay: Primary qHTS for delayed death inhibitors of the malarial parasite plastid, 48 hour incubation; conditions: P. falciparum luciferase growth in erythrocytes; series mostly up to 28.7 µM
Summary of the method: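 Luciferase-expressing parasites in RBCs, 2% Hct / 0.1% parasitemia final; RPMI 1640 + 0.5% Albumax; 37 C, 5% CO2, one generation; luminescence read-out, lower signal = inhibition.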
Potency means the concentration at half of the fitted maximal effect; tags describe the fitted curve by direction and shape.

Q: With Nc1c(N(Cc2ccco2)C(=O)c2cccc(Cl)c2)c(=O)[nH]c(=O)n1Cc1ccccc1 as the molecule, how does the Potency read?
A: Its Potency is inconclusive [inhibitor, single point].

Q: Which Potency does the source give for O=C(Nc1nc2ccccc2[nH]1)c1cc(F)cc(F)c1 here?
A: Its Potency is “inactive”.

Q: With COc1ccc([C@@H]2CC=C(C(=O)O)[C@H](c3ccc(F)cc3)N2S(=O)(=O)c2ccc(Cl)cc2)cc1 as the molecule, how does the Potency read?
A: Its Potency is inconclusive [inhibitor, single point].

Q: With Cc1cc2cc(C)c3nnc(SCC(=O)Nc4ccc(S(=O)(=O)N5CCCCC5C)cc4)n3c2cc1C (stereo not drawn) as the molecule, how does the Potency read?
A: Its Potency is inconclusive [inhibitor, single point].

Q: For CCNC(=O)CN1C(=O)NC(CCc2ccccc2)C1=O (stereo not drawn), which Potency is on record?
A: The Potency was inconclusive [inhibitor, full curve, poor fit].

Q: Which Potency does the source give for O=C1CC(SC2=NCCS2)C(=O)N1c1cccc(Cl)c1Cl (stereo not drawn) here?
A: Its Potency is “inactive”.

Q: Which Potency does the source give for Cc1cccc(C)c1NC(=O)c1cccc2c1C(=O)N(C1CCCCC1)C2 here?
A: Its Potency is active: 10.4 µM.

Q: With CC(C)NS(=O)(=O)c1cccc2nsnc12 as the molecule, how does the Potency read?
A: Its Potency is inconclusive [inhibitor, full curve, poor fit].

Q: With O=C(Nc1cccc(S(=O)(=O)N2CCOCC2)c1)C1CCCCN1S(=O)(=O)c1ccccc1 (stereo not drawn) as the molecule, how does the Potency read?
A: The Potency was inconclusive [inhibitor, single point].

Q: For COc1cc(/C(C)=N/NC(=O)CSc2nncn2C)ccc1OCc1ccccc1Cl, which Potency is on record?
A: Its Potency is inconclusive [inhibitor, partial curve].

Q: Which Potency does the source give for Cc1ccc(S(=O)(=O)NC(CC(C)C)C(=O)Nc2nccs2)cc1 (stereo not drawn) here?
A: The Potency was inconclusive [inhibitor, single point].

Q: Which Potency does the source give for O=C(C1CCCCN1S(=O)(=O)c1ccc(F)cc1)N1CCN(c2ccccc2F)CC1 (stereo not drawn) here?
A: Its Potency is “inactive”.

Q: For Cc1cc(OCC(=O)NCCc2cccc(F)c2)c2c(C)cc(=O)oc2c1, which Potency is on record?
A: Its Potency is inconclusive [inhibitor, single point].

Q: For O=C1N(c2cccc(Cl)c2)C(c2ccc(Cl)cc2)N2CCCN12 (stereo not drawn), which Potency is on record?
A: Its Potency is inconclusive [inhibitor, partial curve, poor fit].

Q: For Nc1c(C(=O)O)ccc2c1C(=O)c1ccccc1C2=O, which Potency is on record?
A: Its Potency is “inactive”.

Q: Which Potency does the source give for COc1ccc(-c2nn(-c3ccccc3)cc2C2CC(c3cccs3)=NN2C(=O)CCCC(=O)O)cc1 (stereo not drawn) here?
A: The Potency was inconclusive [inhibitor, single point].

Q: For NS(=O)(=O)c1ccc(CCNC(=O)COC(=O)c2cc([N+](=O)[O-])ccc2N2CCOCC2)cc1, which Potency is on record?
A: Its Potency is inconclusive [inhibitor, single point].

Q: For CC(=O)c1c(C)[nH]c(C(=O)Nc2ccc(C)c(S(=O)(=O)Nc3ccc(C)cc3C)c2)c1C, which Potency is on record?
A: Its Potency is active: 13.1 µM.
